Measured values from publication PMC6919601, “Identification of Plasmodium dipeptidyl aminopeptidase allosteric inhibitors by high throughput screening” (PLoS ONE, 2019).
About 230 (0.21%) of roughly 110,000 compounds showed an effect of 50% or more. The list shows a part of the results.

Molecular target: DPAP1 (Plasmodium falciparum, UniProt Q8IIJ9)
Test: primary screen, percent inhibition; read by cleavage of a fluorogenic dipeptide substrate; higher = more effect of the substance
Parameters: species or system P. falciparum D10 trophozoite lysates; single well
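Note: 30 min substrate incubation versus DMSO and 10 µM JCP410 controls.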

Sequence of DPAP1 (Q8IIJ9 whole entry, looked up): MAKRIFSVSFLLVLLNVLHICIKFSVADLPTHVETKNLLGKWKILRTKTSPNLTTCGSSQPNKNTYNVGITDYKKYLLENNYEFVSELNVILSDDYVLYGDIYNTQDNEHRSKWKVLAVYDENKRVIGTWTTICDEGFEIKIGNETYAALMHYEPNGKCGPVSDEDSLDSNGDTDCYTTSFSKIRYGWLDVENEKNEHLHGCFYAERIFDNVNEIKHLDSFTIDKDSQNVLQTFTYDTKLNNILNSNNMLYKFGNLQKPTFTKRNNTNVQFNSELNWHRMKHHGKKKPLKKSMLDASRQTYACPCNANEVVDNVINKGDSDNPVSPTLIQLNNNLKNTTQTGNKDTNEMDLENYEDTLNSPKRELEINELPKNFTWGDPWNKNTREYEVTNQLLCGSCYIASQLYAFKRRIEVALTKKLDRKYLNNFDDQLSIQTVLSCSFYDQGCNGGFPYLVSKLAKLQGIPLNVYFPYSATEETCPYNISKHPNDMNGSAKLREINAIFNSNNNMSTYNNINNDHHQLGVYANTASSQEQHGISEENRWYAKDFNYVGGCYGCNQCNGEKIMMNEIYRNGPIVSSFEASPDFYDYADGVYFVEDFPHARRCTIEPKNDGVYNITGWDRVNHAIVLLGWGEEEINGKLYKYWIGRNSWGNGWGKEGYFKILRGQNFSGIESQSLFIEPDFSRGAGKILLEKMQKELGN

Row | Structure (SMILES) | % Inhibition @ 10 uM [%]
1 | CCOc1ccccc1CNC(=O)C(C)n1sc2ccccc2c1=O (centres unmarked) | -3.43
2 | Cc1ccc(C(C)C)c(OCC(=O)n2nc(C)cc2C)c1 | 4.74
3 | COc1ccc(C(=O)Nc2ccc(Cl)cc2C(=O)N2CCC(C)CC2)cc1 | 3.29
4 | Cc1cc(-c2ccc(C)c(S(=O)(=O)N3CCC4(CC3)OCCO4)c2)on1 | -6.86
5 | Cc1ccnc(SC2CC(=O)N(c3ccc(-c4ccccc4)cc3)C2=O)n1 (centres unmarked) | -4.14
6 | COc1cccc(/C=C2\NC(=O)N(Cc3ccccc3)C2=O)c1O | 2.01
7 | N#CC1=C(N)C(C#N)(C#N)C(c2ccc[nH]2)C2CCCC=C12 (centres unmarked) | -2.15
8 | Cc1ccc2oc(C(=O)NCC(c3ccco3)N(C)C)c(C)c2c1 (centres unmarked) | 0.00706
9 | Nc1ncc(Cc2ccccc2Cl)s1 | 11.1
10 | CCC1CCCN1Cn1cnc2c3ccccc3nc-2c1O (centres unmarked) | 1.64
11 | CCOc1cc(CN2CCN(Cc3ccccc3)CC2)ccc1OC | 1.48
12 | Clc1cccc(CSc2nc3ncccc3o2)c1 | -5.22
13 | O=C(O)C1C2CCC(O2)C1C(=O)NCc1ccc2c(c1)OCO2 (centres unmarked) | 2.51
14 | CC(=O)O/N=C(\N)c1ccncc1 | 2.03
15 | CCOC(=O)c1cccc(NC(=O)C2CCCCC2)c1 | -0.318
16 | Cc1ccc(/C=C/C(=O)c2c(O)nc(C)c3c2CCCC3)cc1 | -4.3
17 | Cc1ccc(-c2noc(CSc3nnc(-c4ccncc4)n3CC(C)C)n2)cc1 | -7.86
18 | COc1cc(C(=O)N2CCN(Cc3ccc(Cl)cc3)CC2)cc(OC)c1OC | -2.17
19 | COc1cc(OC)c(OC)cc1/C=C1/NC(=O)N(Cc2ccccc2F)C1=O | -11.6
20 | COc1ccc(N(C(C)C(=O)Nc2ccc(C)cc2)S(C)(=O)=O)cc1 (centres unmarked) | -3.18
21 | COc1cc(C(=O)Nc2cccc(C)c2C)ccc1OC(F)F | -2.85
22 | CCSC1=C(C#N)C(c2ccc(C)s2)CC(=O)N1 (centres unmarked) | 2.46

Row | Structure (SMILES) | % Inhibition @ 10 uM [%]
23 | CCOc1ccc(C(=O)c2cnc3ccccc3c2N2CCCC2)cc1 | -2.18
24 | CN1C(=O)C(CC(=O)NC2CCCCC2)S/C1=N\c1ccccc1 (centres unmarked) | -0.796
25 | C=CCN(CC=C)C(=O)c1c(-c2ccccc2Cl)noc1C | -3.69
26 | CC(C(=O)N1CCCCC1)N(c1ccccc1)S(C)(=O)=O (centres unmarked) | -2.28
27 | O=C(Nc1cccnc1Cl)C1CC(c2ccccc2F)=NO1 (centres unmarked) | -0.431
28 | CCN1CCN(c2cc(=O)n3c(n2)SCCC3)CC1 | -2.92
29 | COc1ccccc1NC(=O)c1c(NC(=O)C(C)(C)C)sc2c1CCC2 | -0.46
30 | COc1cc(OC)cc(-c2cc(N)n(S(=O)(=O)c3cccc4nsnc34)n2)c1 | -3.95
31 | CCOC(=O)c1c(C)nc(C)c(C(=O)OCC)c1-c1ccc(O)c(OC)c1 | -4.04
32 | COC(=O)C1=CN(C(C)C)C=C(C(=O)OC)C1c1ccc(OCc2ccccc2)c(OC)c1 | 3.45
33 | Cc1ccccc1N(CC(=O)N1CCC(C)CC1)S(=O)(=O)c1ccccc1 | -2.6
34 | COc1ccccc1NC(=O)c1ccco1 | -1.93
35 | O=C(NCc1ccccc1)c1ccc(CNc2c(N3CCCC3)c(=O)c2=O)cc1 | 5.91
36 | COCCCNC(=O)c1cc(-c2ccncc2)nc2ccc(S(=O)(=O)N3CCOCC3)cc12 | -6.4
37 | COC(=O)c1c(NC(=O)c2ccccc2C)sc(C(=O)Nc2ccc(OC)cc2)c1C | 4.64
38 | CCCCNC(=O)CCCc1nnc2n(C)c(=O)c3sccc3n12 | -4.58
39 | Cc1nc2cccnc2[nH]1 | 0.708
40 | CC1CN(c2ccc(Cl)cc2[N+](=O)[O-])CCN1 (centres unmarked) | -0.216
41 | CN(C)c1ccc(C(=O)CC2(O)C(=O)N(Cc3ccccc3)c3ccccc32)cc1 (centres unmarked) | -1.99
42 | Cc1occc1C(=O)NC1CCCCCCC1 | -0.622
43 | Cc1cccc(-c2noc(CN(C(=O)C(C)Oc3cccc(Cl)c3)C(C)C)n2)c1 (centres unmarked) | -1.24
44 | COc1ccc(C(=O)Nc2cc3nn(-c4ccc(OC)cc4)nc3cc2C)cc1 | -3.28

Row | Structure (SMILES) | % Inhibition @ 10 uM [%]
45 | Cc1ccccc1OCCCN1CCCCC1 | 5.29
46 | Nc1nonc1-c1nc2ccccc2n1Cc1nc(O)c2ccccc2n1 | -1.11
47 | CC1CC(C)CN(CCCNC(=O)Cn2cnc3onc(-c4ccc(F)cc4)c3c2=O)C1 (centres unmarked) | -1.05
48 | Cc1nc2c(c(C)nn2-c2ccccc2)c(C)c1Cl | -1.69
49 | CCOCCCNC(=O)CN1C(=O)CSc2c1c(C)nn2-c1ccccc1 | 1.46
50 | CC(=O)Nc1cccc(OCC(=O)Nc2c(C)cc(Br)cc2C)c1 | 3.9
51 | Cc1cc(C)cc(NC(=O)COc2ccc(S(=O)(=O)NC(C)C)cc2)c1 | 0.83
52 | Cc1onc(-c2ccccc2Cl)c1C(=O)Nc1nc[nH]n1 | 0.389
53 | CC(=O)N1N=C(c2ccccc2O)CC1c1ccc(Cl)cc1Cl (centres unmarked) | -1.43
54 | CCC(C(=O)N1CCCCCC1)n1nc(C)n2c(cc3sccc32)c1=O (centres unmarked) | 1.8
55 | CCOc1cc(C(=O)N2CCN(c3ccccc3F)CC2)cc(OCC)c1OCC | 0.727
56 | CCCCN(CC)CCCNC(=O)Cn1ncc2c1-c1cc(C)ccc1OC2 | -2.67
57 | COc1nc(Nc2ccccc2)nc(N2CCCC2)n1 | -4.23
58 | Cc1c(C(=O)N(C)Cc2ccccc2)sc2nc3n(c(=O)c12)CCCCC3 | 2.07
59 | CC1=C(C(=O)OCC2CCCO2)C(c2ccc(Cl)c(Cl)c2)NC(=O)N1 (centres unmarked) | -8.85
60 | CCc1ccc2ncc(S(=O)(=O)c3ccccc3)c(N3CCC4(CC3)OCCO4)c2c1 | -8.57
61 | COc1ccc(-n2c(S)nnc2-c2cc(OC)c(OC)c(OC)c2)cc1 | 3.61
62 | COc1ccccc1Cc1nc(-c2ccncc2)no1 | -1.68
63 | CCOc1ccc(C(=O)C2=C(O)C(=O)N(CCCN3CCOCC3)C2c2ccc(C)cc2)cc1C (centres unmarked) | 3.15
64 | Cc1ccc(N2CCN(S(=O)(=O)N3CCOCC3)CC2)cc1Cl | 0.389
65 | O=C(CN(Cc1ccccc1)S(=O)(=O)c1cc(Cl)ccc1Cl)NCc1ccco1 | -5.35
